Results taken from the supplement of paper PMC8728848.
Some of the results follow.

What was measured:
Experiment in all cases: glycan array binding signal (z-score within array); higher = stronger binding
Conditions in all cases: glycan notation: IUPAC condensed, linker removed
[1] = target: Neu5Ac(a2-6)Gal(b1-3)GlcNAc(b1-3)[Gal(b1-4)GlcNAc(b1-6)]Gal(b1-4)Glc
Summary of the method: (§1)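 Glycan array binding is given as a within-array Z-score, which can be read as non-binding when negative. The arrays, 3228 of them, came from the Consortium for Functional Glycomics database and were retained only where the protein sequence was available. Z-scores were averaged across arrays of the same protein sequence at different concentrations or buffers and across linkers.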

Neu5Ac(a2-6)Gal(b1-4)Glc = target: Neu5Ac(a2-6)Gal(b1-4)Glc
Summary of the method: as §1

[2] = target: Neu5Ac(a2-6)Gal(b1-4)GlcNAc
Summary of the method: as §1

[3] = target: Neu5Ac(a2-6)Gal(b1-4)GlcNAc(b1-2)Man
Summary of the method: as §1

[4] = target: Neu5Ac(a2-6)Gal(b1-4)GlcNAc(b1-2)Man(a1-3)Man(b1-4)GlcNAc(b1-4)GlcNAc
Summary of the method: as §1

[5] = target: Neu5Ac(a2-6)Gal(b1-4)GlcNAc(b1-2)Man(a1-3)[Gal(b1-4)GlcNAc(b1-2)Man(a1-6)]Man(b1-4)GlcNAc(b1-4)GlcNAc
Summary of the method: as §1

[6] = target: Neu5Ac(a2-6)Gal(b1-4)GlcNAc(b1-2)Man(a1-3)[GlcNAc(b1-2)Man(a1-6)]Man(b1-4)GlcNAc(b1-4)GlcNAc
Summary of the method: as §1

[7] = target: Neu5Ac(a2-6)Gal(b1-4)GlcNAc(b1-2)Man(a1-3)[GlcNAc(b1-4)][Neu5Ac(a2-6)Gal(b1-4)GlcNAc(b1-2)Man(a1-6)]Man(b1-4)GlcNAc(b1-4)GlcNAc
Summary of the method: as §1

[8] = target: Neu5Ac(a2-6)Gal(b1-4)GlcNAc(b1-2)Man(a1-3)[Man(a1-6)]Man(b1-4)GlcNAc(b1-4)GlcNAc
Summary of the method: as §1

[9] = target: Neu5Ac(a2-6)Gal(b1-4)GlcNAc(b1-2)Man(a1-3)[Neu5Ac(a2-3)Gal(b1-4)GlcNAc(b1-2)Man(a1-6)]Man(b1-4)GlcNAc(b1-4)GlcNAc
Summary of the method: as §1

[10] = target: Neu5Ac(a2-6)Gal(b1-4)GlcNAc(b1-2)Man(a1-3)[Neu5Ac(a2-6)Gal(b1-4)GlcNAc(b1-2)Man(a1-6)]Man(b1-4)GlcNAc(b1-4)GlcNAc
Summary of the method: as §1

[11] = target: Neu5Ac(a2-6)Gal(b1-4)GlcNAc(b1-2)Man(a1-3)[Neu5Ac(a2-6)Gal(b1-4)GlcNAc(b1-2)Man(a1-6)]Man(b1-4)GlcNAc(b1-4)[Fuc(a1-6)]GlcNAc
Summary of the method: as §1

[12] = target: Neu5Ac(a2-6)Gal(b1-4)GlcNAc(b1-2)Man(a1-6)Man(b1-4)GlcNAc(b1-4)GlcNAc
Summary of the method: as §1

[13] = target: Neu5Ac(a2-6)Gal(b1-4)GlcNAc(b1-2)Man(a1-6)[Gal(b1-4)GlcNAc(b1-2)Man(a1-3)]Man(b1-4)GlcNAc(b1-4)GlcNAc
Summary of the method: as §1

[14] = target: Neu5Ac(a2-6)Gal(b1-4)GlcNAc(b1-2)Man(a1-6)[GlcNAc(b1-2)Man(a1-3)]Man(b1-4)GlcNAc(b1-4)GlcNAc
Summary of the method: as §1

[15] = target: Neu5Ac(a2-6)Gal(b1-4)GlcNAc(b1-2)Man(a1-6)[Man(a1-3)]Man(b1-4)GlcNAc(b1-4)GlcNAc
Summary of the method: as §1

[16] = target: Neu5Ac(a2-6)Gal(b1-4)GlcNAc(b1-2)[Neu5Ac(a2-6)Gal(b1-4)GlcNAc(b1-4)]Man(a1-3)[GlcNAc(b1-4)][Neu5Ac(a2-6)Gal(b1-4)GlcNAc(b1-2)[Neu5Ac(a2-6)Gal(b1-4)GlcNAc(b1-6)]Man(a1-6)]Man(b1-4)GlcNAc(b1-4)GlcNAc
Summary of the method: as §1

[17] = target: Neu5Ac(a2-6)Gal(b1-4)GlcNAc(b1-2)[Neu5Ac(a2-6)Gal(b1-4)GlcNAc(b1-4)]Man(a1-3)[GlcNAc(b1-4)][Neu5Ac(a2-6)Gal(b1-4)GlcNAc(b1-4)Man(a1-6)]Man(b1-4)GlcNAc(b1-4)GlcNAc
Summary of the method: as §1

[18] = target: Neu5Ac(a2-6)Gal(b1-4)GlcNAc(b1-2)[Neu5Ac(a2-6)Gal(b1-4)GlcNAc(b1-6)]Man(a1-6)[Neu5Ac(a2-6)Gal(b1-4)GlcNAc(b1-2)Man(a1-3)][GlcNAc(b1-4)]Man(b1-4)GlcNAc(b1-4)GlcNAc
Summary of the method: as §1

[19] = target: Neu5Ac(a2-6)Gal(b1-4)GlcNAc(b1-3)Gal(b1-3)GlcNAc
Summary of the method: as §1

[20] = target: Neu5Ac(a2-6)Gal(b1-4)GlcNAc(b1-3)Gal(b1-4)GlcNAc
Summary of the method: as §1

[21] = target: Neu5Ac(a2-6)Gal(b1-4)GlcNAc(b1-3)Gal(b1-4)GlcNAc(b1-2)Man(a1-3)[Neu5Ac(a2-6)Gal(b1-4)GlcNAc(b1-3)Gal(b1-4)GlcNAc(b1-2)Man(a1-6)]GalNAc
Summary of the method: as §1

[22] = target: Neu5Ac(a2-6)Gal(b1-4)GlcNAc(b1-3)Gal(b1-4)GlcNAc(b1-3)Gal(b1-4)GlcNAc
Summary of the method: as §1

[23] = target: Neu5Ac(a2-6)Gal(b1-4)GlcNAc(b1-3)Gal(b1-4)GlcNAc(b1-3)Gal(b1-4)GlcNAc(b1-2)Man(a1-3)[Neu5Ac(a2-6)Gal(b1-4)GlcNAc(b1-3)Gal(b1-4)GlcNAc(b1-3)Gal(b1-4)GlcNAc(b1-2)Man(a1-6)]GalNAc
Summary of the method: as §1

[24] = target: Neu5Ac(a2-6)Gal(b1-4)GlcNAc(b1-3)Gal(b1-4)GlcNAc(b1-3)GalNAc
Summary of the method: as §1

[25] = target: Neu5Ac(a2-6)Gal(b1-4)GlcNAc(b1-3)Gal(b1-4)GlcNAc(b1-3)[Neu5Ac(a2-6)Gal(b1-4)GlcNAc(b1-3)Gal(b1-4)GlcNAc(b1-6)]GalNAc
Summary of the method: as §1

[26] = target: Neu5Ac(a2-6)Gal(b1-4)GlcNAc(b1-3)Gal(b1-4)GlcNAc(b1-6)[Gal(b1-3)]GalNAc
Summary of the method: as §1

[27] = target: Neu5Ac(a2-6)Gal(b1-4)GlcNAc(b1-3)Gal(b1-4)[Fuc(a1-3)]GlcNAc(b1-3)Gal(b1-4)[Fuc(a1-3)]GlcNAc
Summary of the method: as §1

[28] = target: Neu5Ac(a2-6)Gal(b1-4)GlcNAc(b1-3)GalNAc
Summary of the method: as §1

[29] = target: Neu5Ac(a2-6)Gal(b1-4)GlcNAc(b1-3)[Neu5Ac(a2-6)Gal(b1-4)GlcNAc(b1-6)]GalNAc
Summary of the method: as §1

[30] = target: Neu5Ac(a2-6)Gal(b1-4)GlcNAc(b1-6)GalNAc
Summary of the method: as §1

[31] = target: Neu5Ac(a2-6)Gal(b1-4)GlcNAc(b1-6)[Gal(b1-3)GlcNAc(b1-3)]Gal(b1-4)Glc
Summary of the method: as §1

[32] = target: Neu5Ac(a2-6)Gal(b1-4)GlcNAc(b1-6)[Gal(b1-3)]GalNAc
Summary of the method: as §1

[33] = target: Neu5Ac(a2-6)Gal(b1-4)GlcNAc6S
Summary of the method: as §1

Neu5Ac(a2-6)GalNAc = target: Neu5Ac(a2-6)GalNAc
Summary of the method: as §1

[34] = target: Neu5Ac(a2-6)GalNAc(b1-4)GlcNAc
Summary of the method: as §1

[35] = target: Neu5Ac(a2-6)GalNAc(b1-4)GlcNAc6S
Summary of the method: as §1

[36] = target: Neu5Ac(a2-6)GlcNAc(b1-4)GlcNAc
Summary of the method: as §1

B1: PX9961T-pdi-555-33-555 (Parabacteroides distasonis) (protein)
chain: FDEETAFQSPTLVYVNTVASLYNNMFKIMGNDRHVYDLNTFSSDEAMLPCRIGDWEDGGLWQNIFLHRWGTMNDLTKNSWDFLYEQIGKCNQSVDKLQAFAEEQPDVEYFKVYLEEVRAVRAFFYYELLDLFARVPLVTSSTTPMSEVKQSERSVVFNFVRSELEEALPYLSDNRSNQKGEYYGRITKPVAYMILAKLALNAEVYADDNWTDGNRPAGKNIKFTVDGKEMNAWEATIAYVDKLEALGYKLQGNFSENFAVANETSVENIFTVPMDPVAYPDAKDYNLVRTRHYDHATAYGQSGWNGSCATVKAMNVFKFGTADEDPRCKLTYFTGEVTGPDGKTIYTEWDGQKVPLKYEPNAPKVYMDASDGLLVKTAGARMAKYEFDQNAQDGGNLHGNDCVIFRFADALLMKAEAKIRLGQNGDDEVNQVRNRVGAKPLQNVTLDTLLDERMLELAWEGVRRQDLIRFGKFTEATVDRYVGVKHFASSLDYQEDKTGYTTVFSIYADILSLNPNLTQNPGY
[1]
  glycan array binding signal (z-score): 0.11
Neu5Ac(a2-6)Gal(b1-4)Glc
  glycan array binding signal (z-score): -0.648
[2]
  glycan array binding signal (z-score): 0.788
[3]
  glycan array binding signal (z-score): -0.049
[4]
  glycan array binding signal (z-score): -0.412
[5]
  glycan array binding signal (z-score): -0.369
[6]
  glycan array binding signal (z-score): -0.536
[7]
  glycan array binding signal (z-score): -0.122
[8]
  glycan array binding signal (z-score): -0.375
[9]
  glycan array binding signal (z-score): -0.499
[10]
  glycan array binding signal (z-score): 0.01
[11]
  glycan array binding signal (z-score): -0.612
[12]
  glycan array binding signal (z-score): -0.818
[13]
  glycan array binding signal (z-score): -0.455
[14]
  glycan array binding signal (z-score): 0.259
[15]
  glycan array binding signal (z-score): -0.48
[16]
  glycan array binding signal (z-score): -0.237
[17]
  glycan array binding signal (z-score): 0.046
[18]
  glycan array binding signal (z-score): -0.644
[19]
  glycan array binding signal (z-score): 0.972
[20]
  glycan array binding signal (z-score): -0.368
[21]
  glycan array binding signal (z-score): 0.394
[22]
  glycan array binding signal (z-score): 0.075
[23]
  glycan array binding signal (z-score): 0.737
[24]
  glycan array binding signal (z-score): -0.229
[25]
  glycan array binding signal (z-score): 1.82
[26]
  glycan array binding signal (z-score): -0.675
[27]
  glycan array binding signal (z-score): 0.003
[28]
  glycan array binding signal (z-score): 0.302
[29]
  glycan array binding signal (z-score): -0.504
[30]
  glycan array binding signal (z-score): -0.494
[31]
  glycan array binding signal (z-score): -0.277
[32]
  glycan array binding signal (z-score): -0.141
[33]
  glycan array binding signal (z-score): 0.399
Neu5Ac(a2-6)GalNAc
  glycan array binding signal (z-score): 0.008
[34]
  glycan array binding signal (z-score): -0.397
[35]
  glycan array binding signal (z-score): 0.324
[36]
  glycan array binding signal (z-score): -0.085
